Several values for one entry are separate records, joined by “and”; a condition that tells them apart may be missing. Equal entries are not always repeated. Among all 370,000 compounds or so, about 500 (0.14%) were called active. The inconclusive results got no clear call from the source; some entries with a clear call stand among them for comparison. Calls come from the whole dose curve; as a rule, active = well fitted activation curve with a large enough effect; inconclusive = small, poorly fitted or top-dose-only effect; inactive = no such curve, though single readings can be large or run the other way. Where the call is inconclusive, the potency comes from a doubtful curve fit.
Assay: qHTS of alpha-syn Inhibitors; note: nearly all actives have a fitted effect of over 65% in size; for growth rescue (activation): % of control where 0% means no effect
Conditions: Yeast expressing alpha-synuclein, BacTiter-Glo, 24 h; Potency: growth rescue unless noted; growth rescue (activation): at 46.1 µM (top of the series) unless noted
Procedure, shortened: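 Galactose-induced alpha-syn yeast (OD600=0.02, raffinose-pregrown) + pinned cpd, 24 hr, 30 deg C; growth by BacTiter-Glo luminescence. Growth restoration scores as activation.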
Potency is the fitted concentration of half-maximal effect; tags give direction and shape of the fitted curve.

SMILES | Potency | growth rescue (activation)
Cc1ccc(S(=O)(=O)/N=C(/Nc2ccccc2C)c2ccccc2)cc1 | inconclusive: 12.6 µM [activator, single point] | –
COc1ccc(NC(=O)c2ccc3ncsc3c2)cc1 | – | inactive: -27.1%
CC[N+](C)(C)c1ccc(/C=C/c2ccc3ccccc3n2)cc1 | – | inactive: -64.6%
COc1ccc(-c2nc(NC(=O)c3cc(C(C)(C)C)nn3C)sc2C)cc1 | inconclusive: 25.1 µM [activator, single point] | –
Cc1ccc(-c2cc(O)cc3sc(=O)oc23)cc1C | – | inactive: -18%
Cc1c(C(=O)OCC(=O)N(C)Cc2ccccc2)oc2ccccc12 | inconclusive: 14.1 µM [activator, single point] | –
COC(=O)c1c(O)ccc(Oc2ccccc2)c1C(=O)OC | inconclusive: 22.4 µM [activator, single point] | –
N#Cc1ccc(-c2nc3cc(Cl)ccc3c(=O)n2O)cc1 | inconclusive: 35.5 µM [activator, single point] | –
Cc1cccc(NCc2cccc3ccccc23)n1 | inconclusive: 2.82 µM [activator, partial curve] | –
C=C1C=C(C)n2ncc(C(=O)Nc3ccccc3O)c2N1 | – | inactive: -8.64%
O=S(=O)(Nc1ccc(Cl)cc1)c1cccc2cccnc12 | inconclusive: 35.5 µM [activator, single point] | –
C[C@@H](NC(=O)Cn1cnc2c(OCc3ccccc3)ncnc21)c1cccc2ccccc12 | inconclusive: 35.5 µM [activator, single point] | –
COCCNC(=O)[C@@H]1CSC2c3ccc(OC)c(OC)c3C(=O)N21 (stereo not given in full) | – | inactive: -4.18%
COc1ccc(NC(=O)Nn2cnnc2)cc1OC | – | inactive: -9.98%
CC1(C)C(=O)C=CC(=O)C(C)(C)C(=O)C=CC(=O)C(C)(C)C2=CC=C(O2)C(C)(C)C(=O)C=CC1=O | – | inactive: 8.36%
O=C(CC(C(=O)O)n1ccnc1)c1ccc(Cl)cc1 (stereo not given) | inconclusive: 15.8 µM [activator, single point] | –
CCOc1ccc(NCc2nnc(SCc3ccccc3Cl)n2-c2ccccc2)cc1 | inconclusive: 31.6 µM [activator, single point] | –
CN(C)S(=O)(=O)Oc1ccc(C(=O)Nc2cccc(Cl)c2)cc1 | – | inactive: -4.43%
CCc1nnc(NC(=O)[C@@H]2CCCN2C(=O)c2cccs2)s1 | – | inactive: -0.328%
c1csc(CNc2ncnc3sccc23)c1 | – | inactive: -2.27%
O=S(=O)(NCC1CC1)c1cccc(S(=O)(=O)N2CCCC2)c1 | – | inactive: -0.376%
COc1ccc(Cl)cc1Cn1c(C)c(C(=O)NCc2cccc([N+](=O)[O-])c2)sc1=O | inconclusive: 35.5 µM [activator, single point] | –
O=C(Cn1cnc2onc(-c3ccc(F)cc3)c2c1=O)N1CCN(c2ccc(F)cc2)CC1 | inconclusive: 31.6 µM [activator, single point] | –
CCOC(=O)N1CCN(C(=O)C[C@@H]2C[C@@]3(C(=O)OCC)CCC=C3N(Cc3ccco3)C2=O)CC1 | inconclusive: 35.5 µM [activator, single point] | –

SMILES | Potency | growth rescue (activation)
COc1ccc(NC(=O)C2(C)Cc3c(-c4ccc(N(C)C)cc4)ccnc3O2)cc1 (stereo not given) | – | inactive: -2.16%
CCSc1nnc(NC(=O)C2CSC3(C)CCC(=O)N23)s1 (stereo not given) | inconclusive: 31.6 µM [activator, single point] | –
CCn1c(SCC(N)=O)nnc1-c1ccc2c(c1)OCO2 | inconclusive: 4.47 µM [activator, single point] | –
CSc1ccc(S(=O)(=O)N2CCC(C(=O)NCCCn3ccnc3)CC2)cc1 | – | inactive: 0.356%
NC(=O)C1CCCN(C(=O)c2[nH]c(C(F)(F)F)nc2-c2ccccc2)C1 (stereo not given) | inconclusive: 31.6 µM [activator, single point] | –
O=C(Nc1ccc(Br)cc1)c1ccc2ncsc2c1 | – | inactive: -6.35%
COC(=O)C1=CN(c2ccc(C(C)(C)C)cc2)C(N)=C(C#N)C1c1cccc([N+](=O)[O-])c1 (stereo not given) | – | inactive: 0.899%
COCCNC(=O)C1CCCN(Cc2cccc(C#N)c2)CC1 (stereo not given) | inconclusive: 5.62 µM [activator, single point] | –
CC(C)c1ccc(O)c(NC(=S)NC(=O)c2cccnc2)c1 | – | inactive: 0.799%
CCOC(=O)C1=C(O)/C(=C/c2ccc(OCC(=O)O)c(OCC)c2)SC1=Nc1ccc(C)cc1 | – | inactive: 1.72%
COc1cccc(=O)c2c(C)n(C)c(C)c12 | – | inactive: -0.469%
CCOC(=O)C1=C(c2ccccc2)NC(=O)NC1c1cc(OC)c(OC)c(OC)c1 (stereo not given) | inconclusive: 31.6 µM [activator, single point] | –
CCCCCCCCN1C(=O)[C@H](CC(=O)N2CCSCC2)C[C@@]2(C(=O)OC)CCCCC=C12 | inconclusive: 15.8 µM [activator, single point] | –
O=S(=O)(c1ccc2ccccc2c1)N1CCN(c2nc(-c3ccccc3)nc3ccccc23)CC1 | – | inactive: 0.411%
CC(O)(c1ccc(F)c(F)c1)c1nc(/C=C/c2ccccc2)cs1 (stereo not given) | – | inactive: -59.3%
CC1(C)Nc2cccc3c(N=Nc4ccc(N=Nc5ccccc5)c5ccccc45)ccc(c23)N1 | – | inactive: -42.6%
O=C(NC1CCN(C(=O)N2c3ccccc3Sc3ccccc32)CC1)c1ccccc1Cl | inconclusive: 20 µM [activator, single point] | –
COc1ccc(C(=O)/C=C/C(=O)N(Cc2ccc(F)cc2)C(C(=O)NC2CCCCC2)c2ccncc2)c(O)c1 (stereo not given) | active: 25.1 µM | –
CCCC(=O)Nc1nc2ccc(NC(=O)c3c(F)c(F)c(OC)c(F)c3F)cc2s1 | inconclusive: 6.31 µM [activator, single point] | –
N#CC1=C(Nc2ccccc2Cl)SC(c2ccccc2O)NC1=O (stereo not given) | inconclusive: 15.8 µM [activator, single point] | –
O=S(=O)(c1ccc2ccccc2c1)N1CCN(S(=O)(=O)N2CCOCC2)CC1 | inconclusive: 35.5 µM [activator, single point] | –
COCCCN(Cc1ccco1)C(=O)c1cc2c(s1)-c1ccccc1OC2 | – | inactive: 1.8%
COc1cc(C#N)ccc1OCC(=O)Nc1cccc(S(=O)(=O)N(C)c2ccccc2)c1 | inconclusive: 15.8 µM [activator, single point] | –
Nc1ccc2c(c1)[nH]c(=O)c1ccccc12 | inconclusive: 15.8 µM [activator, single point] | –

SMILES | Potency | growth rescue (activation)
CC(=O)Nc1cc2cc(NS(=O)(=O)c3ccc(C)cc3)ccc2oc1=O | inconclusive: 3.98 µM [activator, single point] | –
Cc1ccc(NC(=O)c2cc(-c3ccc(C)o3)nc3ccccc23)nc1 | inconclusive: 14.1 µM [activator, single point] | –
Cc1ccc(NS(=O)(=O)c2ccc(-c3cnc(C4CC4)o3)cc2)c(C)c1 | inconclusive: 31.6 µM [activator, single point] | –
CC(=O)c1cccc(OCC(O)CNCCc2ccc(Cl)cc2)c1 (stereo not given) | inconclusive: 5.62 µM [activator, single point] | –
N/C(=N\S(=O)(=O)c1cccs1)c1ccccc1Cl | inconclusive: 3.55 µM [activator, single point] | –
CC(=O)Nc1ccc(NC(=O)C(C)Sc2nnc(-c3cccs3)o2)cc1 (stereo not given) | inconclusive: 15.8 µM [activator, single point] | –
Nc1[nH]c(C(=O)c2ccccc2)c(-c2ccc(Br)cc2)c1C(=O)NC1CCCCC1 | inconclusive: 5.01 µM [activator, single point] | –
COc1cccc(NC(=S)N(CCc2ccc(OC)c(OC)c2)Cc2ccccn2)c1 | – | inactive: -0.0284%
O=C(C=P(c1ccccc1)(c1ccccc1)c1ccccc1)c1ccccc1-c1ccccc1C(=O)C=P(c1ccccc1)(c1ccccc1)c1ccccc1 | – | inactive: -70.2%
CCOc1ccc(-c2cn(S(=O)(=O)c3cccc4nsnc34)nc2N)cc1 | inconclusive: 5.62 µM [activator, single point] | –
CCCCCCCC/C=C\CCCCCCCC(=O)NCCc1ccc(O)c(O)c1 | inconclusive: 31.6 µM [activator, single point] and inconclusive: 29.1 µM [activator, single point] | –
COc1ccc(C(=O)NCC2CCCO2)cc1S(=O)(=O)NCc1ccc(Cl)cc1 (stereo not given) | inconclusive: 5.62 µM [activator, single point] | –
Cc1ccc(C)c(N2CCN(Cc3nnnn3C3CCCCC3)CC2)c1 | inconclusive: 1.58 µM [activator, partial curve] | –
COC(=O)[C@]12CCCCC=C1N(Cc1ccc(Cl)cc1Cl)C(=O)[C@H](CC(=O)N1CCN(C(=O)c3ccco3)CC1)C2 | inconclusive: 20 µM [activator, single point] | –
O=C(NCc1ccccc1F)C1CCN(c2nnc(-n3cccc3)s2)CC1 | – | inactive: -1.29%
Cc1cccc(C(=O)CC(=O)c2cc(Cl)ccc2O)c1 | inconclusive: 31.6 µM [activator, single point] | –
C=CCNC(=O)c1ccc2nc(-c3ccco3)c(-c3ccco3)nc2c1 | inconclusive: 31.6 µM [activator, single point] | –
COC(=O)c1sc2ccc(C)cc2c1C(=O)OC | – | inactive: 8.64%
CCc1ccc(Nc2n[n+](-c3ccccc3)c(-c3cccc(Cl)c3Cl)s2)cc1 | inconclusive: 31.6 µM [activator, single point] | –
CC(=O)C1=C(O)C(=O)N(CCc2c[nH]c3ccccc23)C1c1ccccc1 (stereo not given) | – | inactive: -11.8%
CCCOc1cccc(-c2cc(C(=O)N/N=C/c3ccccn3)c3ccccc3n2)c1 | inconclusive: 31.6 µM [activator, single point] | –
CCSc1nnc(NC(=O)c2ccccn2)s1 | inconclusive: 3.16 µM [activator, partial curve, poor fit] | –

From PubChem BioAssay AID652106 (National Center for Advancing Translational Sciences (NCATS), 2013)
